# Data: PubChem BioAssay AID662 (National Center for Advancing Translational Sciences (NCATS), 2007)
# The whole screen tested about 71,000 compounds, of which about 1,800 (2.5%) were called active. Inconclusive results, whose numbers are uncertain, are shown with a selection of clear calls. Calls come from the whole dose curve; as a rule, active = well fitted activation curve with a large enough effect in the signal ratio, with a control signal flat (not every such curve was filed as active); inconclusive = small, poorly fitted or top-dose-only effect, or effect the other way, or a change in a side signal; inactive = flat fitted curve, though single readings scatter; the % refers to the signal ratio. Potencies of inconclusive entries are doubtful fits and often do not repeat.
# Experiment: Cell signaling CRE-BLA (Fsk stim); for activity change, negative = inhibition: % of control where 0% means no effect
# Conditions: CHO CRE-bla reporter (cAMP response element driving beta-lactamase), forskolin EC10, beta-lactamase ratio; activity change, negative = inhibition: at 38.2 µM (top of the series) unless noted
# In short: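 CRE-bla CHO cells stimulated with EC10 NKH 477 (water-soluble forskolin) and compound titrations, 3 h at 37C; beta-lactamase read with CCF4 after 2 h at room temperature. Activity from 460/530 nm emission ratio, AC50 values for positive or negative modulation.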
# Potency is the fitted concentration of half-maximal effect; tags give direction and shape of the fitted curve.
Compound,"activity change, negative = inhibition",Potency
O=c1cc(CSc2nnc(COc3ccccc3Cl)o2)nc2sccn12,inconclusive: 24.6%,
CCC(=O)c1cc(F)c(N2CCN(S(=O)(=O)c3ccc(C)cc3)CC2)cc1C,inconclusive: 28.6% [at 7.6 µM],
CCCC/C=C/C(NC(=O)OCc1ccccc1Cl)c1ccccc1 (stereo not given),inconclusive: 13.9%,
Cc1sc2nc3n(c(=O)c2c1C)CCCS3,,"inconclusive: 12.6 µM [rising, partial curve]"
O=C(Nc1ccc2nc(-c3cccs3)[nH]c2c1)c1cccs1,,active: 3.16 µM
CCN(CCNC(=O)Nc1ccc(Cl)cc1)c1ccccc1,inactive: -16.5%,
Cc1ccc(CN2CCN(CC(=O)NCc3ccc(Cl)cc3)C2=O)cc1,inactive: -12%,
CC1CC(C)(C)NC(=S)S1 (stereo not given),inconclusive: 13.5%,
FC(F)(F)C12CC(c3ccccc3)=NCCN1CCN2 (stereo not given),inactive: -3.59%,
COc1ccc2c(c1OC)C(=O)N(c1cccc(C(F)(F)F)c1)C2,,"inconclusive: 20 µM [rising, single point]"
NNS(=O)(=O)c1cc(C(=O)O)cc(C(=O)O)c1,inactive: 4.64% [at 7.6 µM],
COc1ccc(-c2nn(C)c(=O)c3ccccc23)cc1CNC(=O)c1ccco1,,"inconclusive: 12.6 µM [rising, partial curve]"
O=C(O)CS(=O)(=O)c1ccc(Oc2ccc(S(=O)(=O)CC(=O)O)cc2)cc1,inactive: -7.17%,
CCc1ccc(NC(=O)Nc2cccs2)cc1,inactive: 18.2%,
C=CCn1c(COc2ccc(Cl)cc2)nnc1SCc1ccc(C#N)cc1,inconclusive: 6.65%,
COc1ccc(/C=N/c2nc3ccccc3n2C)cc1OC,,"inconclusive: 25.1 µM [rising, single point]"
N#Cc1ccc(CN2CCN(C(=O)c3ccccc3)CC2)c(Cl)c1,,"inconclusive: 0.02 µM [falling, full curve, poor fit]"
CCOC(=O)N1CCN(S(=O)(=O)c2ccc(F)c(C(=O)Nc3cc(C)cc(C)c3)c2)CC1,inconclusive: -3.98%,
O=c1c2[nH]c3ccc(F)cc3c2ncn1CCN1CCOCC1,,"inconclusive: 1.58 µM [rising, partial curve, poor fit]"
CCCCOc1ccc(CC(=O)NO)cc1,inconclusive: 10.7% [at 17.1 µM],
c1ccc(-n2cccc2CNC2CCCCC2)cc1,inactive: -15.7%,
COc1ccccc1N(CC(=O)N1CCCCCC1)S(C)(=O)=O,inconclusive: -11.2% [at 7.6 µM],
Oc1c(Cl)cc(Cl)cc1Sc1cc(Cl)cc(Cl)c1O,,"inconclusive: 2.51 µM [falling, full curve, poor fit]"
OC1CC(c2ccco2)NC2(CCCCC2)C1 (stereo not given),inactive: -5.03%,
O=S(=O)(Cc1ccccc1Cl)Nc1ccccn1,inactive: -9.57%,
CC(C)(C)COS(=O)OCC(C)(C)C,inactive: 1.3% [at 7.6 µM],
CCOC(=O)c1c(C)nc2sccn12,,active: 12.6 µM
COC(=O)c1cc(Br)ccc1-c1ccc(/C=N/n2nnnc2N)o1,,"inconclusive: 3.98 µM [rising, partial curve]"

Compound,"activity change, negative = inhibition",Potency
COc1cccc(Cn2c(=O)c(-c3ccc(F)cc3)nc3cnc(N4CCOCC4)nc32)c1,,"inconclusive: 0.398 µM [rising, full curve]"
N#Cc1nc(-c2ccco2)oc1NCCCN1CCOCC1,inactive: 6.07%,
N/C(=N\O)c1cn([C@@H]2O[C@@H](CO)[C@H](O)[C@@H]2O)c2ncnc(NO)c12,inactive: -11.6% [at 7.6 µM],
Cc1cc(-c2ccccc2C(=O)NCc2ccccc2)on1,inactive: -8.25%,
CCc1ccc(-c2nc(CN3CCC(C(=O)N4CCN(c5ccccc5)CC4)CC3)c(C)o2)cc1,inconclusive: -23.1%,
O=c1c(-c2ccc(F)cc2)nc2cnc(N3CCOCC3)nc2n1Cc1ccc(F)cc1,,"inconclusive: 0.631 µM [rising, partial curve]"
CCOc1ccc(-c2nnn(CC(=O)Nc3cccc(OC)c3)n2)cc1OCC,,"inconclusive: 10 µM [rising, single point]"
CCc1cc2c(NCC3CCCO3)ncnc2s1 (stereo not given),inactive: 19.2%,
COc1cccc(S(=O)(=O)NCc2ccc(C(=O)NCc3ccco3)cc2)c1,inconclusive: -8.03%,
CCC(C)n1cnc2c(c1=O)c1nc3ccccc3nc1n2Cc1ccc2c(c1)OCO2 (stereo not given),,active: 15.8 µM
CCOc1ccc(S(=O)(=O)Nc2ccc(Cl)cn2)c(C)c1C,inactive: 0.887%,
CCOC(=O)C1CCCN(C(=O)CNS(=O)(=O)c2ccc(Br)s2)C1 (stereo not given),inconclusive: -4.62%,
COc1ccccc1NC(=O)Nc1ccc2c(c1)OCCO2,inconclusive: -3.55%,
CCn1nc(CC(=O)Nc2ccc(-n3cnnn3)c(C)c2)c2ccccc2c1=O,inconclusive: 20.6%,
Cc1noc(C)c1-c1ccc2ncnc(Nc3ccccc3)c2c1,inconclusive: 7.15%,
CCN1/C(=C/C(C)=O)Sc2ccc(OC)cc21,inactive: 20.6%,
CC(C)(C)C(=O)c1no[n+]([O-])c1/C(=N/O)C(C)(C)C,,"inconclusive: 7.94 µM [rising, partial curve]"
Cc1cc(C)nc(N2CCC(C(=O)N3CCN(c4cc(Cl)ccc4C)CC3)CC2)n1,,"inconclusive: 3.16 µM [falling, partial curve]"
CCOc1nc(-c2ccc(C)cc2)ccc1-c1noc(-c2cccnc2)n1,inactive: 2.14%,
CCOC(=O)CSc1nc2cc(OCC)ccc2cc1C#N,inactive: 2.38%,
O=C(COc1ncnc2ccccc12)N1CCN(C(=O)c2ccco2)CC1,,"inconclusive: 3.16 µM [falling, single point]"
CCCCOC(=O)C1=C(C)Nc2ncnn2C1c1cccc(OC)c1OC (stereo not given),inconclusive: -1.47%,
COc1cccc(C(=O)N(Cc2cc3cc(C)ccc3[nH]c2=O)C(C)C)c1,inactive: -3.53%,
COc1ccc(-n2c(=O)c3c4c(sc3n3cnnc23)CC(C)CC4)cc1 (stereo not given),inconclusive: 13.9%,
CS(=O)(=O)Nc1cccc(-c2nc(-n3ccnc3)c3ccccc3n2)c1,,"inconclusive: 12.6 µM [rising, single point]"
Clc1cc(NCc2cccs2)ccc1N1CCOCC1,inactive: 13.7%,
CSc1c(C#N)c(N)c(C#N)c2c1COC(C)(C)C2,,active: 3.98 µM
